Test results published in PubChem BioAssay AID1345083 (National Center for Advancing Translational Sciences (NCATS), 2018).
Where “and” joins values, the source holds several entries; their conditions need not be identical. Equal values may be shown once. Among all 94,000 compounds or so, about 6,200 (6.6%) were called active. This list was built around the results that the source calls inconclusive (neither active nor inactive); the mix of calls is not that of the screen. The call rests on the fitted dose curve; in most records, active means well fitted inhibition curve with a large enough effect; inconclusive means small, poorly fitted or top-dose-only effect; inactive means flat fitted curve, though single readings scatter. Potencies of inconclusive entries are doubtful fits and often do not repeat.

Experiment: Cytotoxic Profiling in HEK 293 Cell Line of Diverse Libraries Using Quantitative High-Throughput Screening; further: nearly all actives have a fitted effect of over 60% in size
Details: HEK 293 viability, ATP luminescence (CellTiter-Glo), 48-72 h; series mostly up to 115 µM
In short: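 qHTS cytotoxicity; HEK 293, 250 cells/well; compound pinned; 48 or 72 hr, 37 degree Celsius, 5% CO2, 95% humidity; CellTiter-Glo, 10 min RT; luminescence (ATP).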
Potency means the concentration at half of the fitted maximal effect; tags describe the fitted curve by direction and shape.

Row | Compound | Potency
1 | O=C(O)Cn1ccc2cc(OCC3CCN(C(=O)COc4ccccc4)CC3)cnc21 | inactive
2 | Cc1ccc(NC(=O)C2CCCN(c3cnn(Cc4ccccc4)c(=O)c3)C2)c(C)c1 (stereo not given) | inconclusive: 56.2 µM [inhibitor, partial curve, poor fit]
3 | Cn1cc(-c2ccncc2)cc1C(=O)N1CCN(c2ccccn2)CC1 | inconclusive: 50.1 µM [inhibitor, partial curve, poor fit]
4 | Cn1ncc2c(C(=O)NC3CC3)cc(-c3cccc(F)c3)nc21 | inconclusive: 70.8 µM [inhibitor, partial curve]
5 | CC(C)c1nc2c(c(-c3ccc(O)cc3)n1)CN(Cc1cccn1C)CC2 | inconclusive: 79.4 µM [inhibitor, partial curve, poor fit]
6 | O=C(c1ccccn1)N1CCCn2cc(-c3ccccc3)nc21 | inconclusive: 39.8 µM [inhibitor, partial curve, poor fit]
7 | CC1=NS(=O)(=O)N(Cc2ccccc2)C=C1C(=O)OCc1noc(-c2ccccc2C)n1 | inconclusive: 28.2 µM [inhibitor, full curve, poor fit]
8 | N#Cc1ccc(C(=O)N2C[C@@H](CO)[C@H](c3ccccn3)C2)cc1 | inconclusive: 89.1 µM [inhibitor, single point]
9 | O=C(O)CCn1ncc2cc(OCC3CCN(C(=O)OC4CCCC4)CC3)ccc21 | inconclusive: 100 µM [inhibitor, partial curve]
10 | COc1cccc(CN2Cc3cc(NC(=O)Cc4ccccc4)ccc3OCC2=O)c1 | inconclusive: 89.1 µM [inhibitor, single point]
11 | COc1ccc2[nH]c3c(c2c1)CCNC31CCN(C(=O)C(C)(C)C)CC1 | inconclusive: 35.5 µM [inhibitor, partial curve, poor fit]
12 | CSc1ccc(-c2cccc(C(=O)NCCNC(=O)N(C)C)c2)cc1 | active: 25.1 µM
13 | CN(C)c1ccc(CN2CC[C@H](c3nc4ccccc4n3C)C2)cc1 | inconclusive: 112 µM [inhibitor, single point]
14 | COCc1ccc2c(c1)c(OC(C)(C)C(=O)NCCCn1ccnc1)nn2Cc1ccccc1 | inactive
15 | COc1ccc(CN2C(=O)COC[C@@H]2[C@H](O)c2ccc(NC(C)=O)cc2)cc1 | inactive
16 | CN(C)CCCn1cnc2cc(NC(=O)C[C@H]3NC(=O)c4ccccc4NC3=O)ccc21 | inactive
17 | COc1ccc(-c2nnc3ccc(Nc4cccc(OC)c4)nn23)nc1 | inconclusive: 50.1 µM [inhibitor, full curve]
18 | Cc1ccc2c(n1)N(C)[C@H](CO)CCN(Cc1ccc(C(C)C)cc1)C2 | active: 63.1 µM
19 | O=C(NCc1ccc(F)cc1)c1nc(-c2ccc(Cl)cc2)c2ccccn12 | inconclusive: 8.91 µM [inhibitor, full curve, poor fit]
20 | CN(C)S(=O)(=O)N1CC(CNC(=O)C2CC2)C2(CCCCC2)C1 (stereo not given) | inconclusive: 79.4 µM [inhibitor, partial curve, poor fit]
21 | CC(C)c1ccc(S(=O)(=O)N(C)CC2CCOCC2)cc1 | inconclusive: 70.8 µM [inhibitor, single point]
22 | O=C(NCc1ccccc1Cl)c1ccc2nnc(-c3ccc(OC(F)(F)F)cc3)n2c1 | inconclusive: 50.1 µM [inhibitor, partial curve, poor fit]

Row | Compound | Potency
23 | CC(C)c1ccc(CC(=O)N2CCCc3ncc(C(=O)Nc4ccccc4)cc32)cc1 | active: 28.2 µM
24 | CCn1cc(CN2CCN(C(=O)c3sccc3C)CC2)ccc1=O | inconclusive: 79.4 µM [inhibitor, partial curve, poor fit]
25 | COCc1ccc2c(c1)c(OC(C)(C)C(=O)N1CCOCC1)nn2Cc1ccccc1 | inactive
26 | O=[S+]1([O-])NCC2(CCCN(Cc3cccc4ccccc34)C2)Nc2ccccc21 (stereo not given) | inconclusive: 39.8 µM [inhibitor, full curve, poor fit]
27 | CN(C)c1cc(N2CCCC(NC(=O)c3ccco3)C2)ncn1 (stereo not given) | inactive
28 | CCc1nc(CN2CC[C@@H](c3ccc4c(c3)OCO4)[C@H](O)C2)c(C)[nH]1 | inactive
29 | CC(=O)Nc1ccc(-c2c(-c3ccccc3)ncn2Cc2ccnc(C)c2)cc1 | inconclusive: 100 µM [inhibitor, single point]
30 | COc1ccc(Nc2ccnc(N3CCC(N[S+](=O)([O-])c4ccc(C)cc4)CC3)n2)cc1 | active: 28.2 µM
31 | COc1cc(Cl)ccc1C(=O)N1CCC(c2n[nH]c(=O)n2Cc2ccc(F)cc2)CC1 | inconclusive: 39.8 µM [inhibitor, single point]
32 | CCCCOCCCNC(=O)c1c(C)noc1-c1cc(OC)cc(OC)c1 | inconclusive: 89.1 µM [inhibitor, single point]
33 | CC(C)N1C[C@@H]2C[C@H]1C(=O)N(Cc1ccccc1)c1ccccc1O2 | inconclusive: 79.4 µM [inhibitor, partial curve, poor fit]
34 | CC(=O)Nc1ccc2c(c1)nc1n2[C@@H](CNC(=O)NC(C)C)COC1 | inactive
35 | CC(=O)NC1(C)CCN(Cc2cccc(-c3cccc4ncccc34)c2)C1 (stereo not given) | inconclusive: 126 µM [inhibitor, single point]
36 | O=C(NCCc1ccccc1)C1Cn2cccc2C(=O)N1Cc1cccnc1 (stereo not given) | inactive
37 | O=C(c1ccsc1)N1CCCC(c2nc(C3CCOCC3)no2)C1 (stereo not given) | inactive
38 | COc1cccc(-c2ccccc2C=O)c1 | inconclusive: 56.2 µM [inhibitor, partial curve, poor fit]
39 | CCOc1ccccc1CNC(=O)c1cccc2c1CCN2C(=O)CC | inactive
40 | Cc1ncccc1-c1nc2cc(C(=O)NCC(C)C)ccc2o1 | inconclusive: 39.8 µM [inhibitor, full curve, poor fit]
41 | O=C(NC1CCCN(c2ccc3nnc(-c4ccccc4)n3n2)C1)c1ccccc1F (stereo not given) | inconclusive: 22.4 µM [inhibitor, full curve, poor fit]
42 | CCCCN1C(=O)[C@@H]2C[C@@H](O)CN2C2(CN(Cc3ccc(F)cc3)C2)C1=O | inactive
43 | CNC(=O)c1onc(-c2ccc(OC)cc2)c1[C@H](C)O | inactive
44 | Cc1ccc(NC(=O)Cn2c(N3CCN(c4ccccc4)CC3)nc(C)cc2=O)c(Cl)c1 | inactive

Row | Compound | Potency
45 | COc1ccccc1-c1ccc(CN2CCCCC2C(=O)NC2CCCC2)cc1 (stereo not given) | inconclusive: 22.4 µM [inhibitor, full curve, poor fit] and active: 35.5 µM
46 | Cc1[nH]nc2c1C(c1cccc(Cl)c1)C(C#N)=C(N)O2 (stereo not given) | inconclusive: 44.7 µM [inhibitor, partial curve, poor fit]
47 | COC(=O)c1cccc2nc([C@H]3CCN(Cc4ccccc4)C3)oc12 | active: 79.4 µM
48 | COc1ccc(C(=O)N2CCC(N3CC4CC(C3)[C@H]3CCCC(=O)N3C4)CC2)c(OC)c1 (stereo not given in full) | inactive
49 | COc1ccc(CN2CCN3C(=O)N(Cc4ccc(C)cc4)C[C@H]3C2)cn1 | inconclusive: 100 µM [inhibitor, partial curve]
50 | CCc1ccc(CN(C)C(=O)c2cn(CC3COc4ccccc4O3)nn2)cc1 (stereo not given) | inconclusive: 56.2 µM [inhibitor, partial curve, poor fit]
51 | COc1ncc(-c2cc(C(=O)NCc3c(C)cc(C)[nH]c3=O)c3c(c2)N(C(C)C)CCO3)cn1 | inconclusive: 79.4 µM [inhibitor, partial curve]
52 | CN(C)[S+](=O)([O-])c1ccc2c(c1)OCCN(Cc1ccc(C(F)(F)F)cc1)C2 | inconclusive: 28.2 µM [inhibitor, full curve]
53 | COc1cc(CN2CCCCC23Cc2ccccc2CNC3=O)ccc1F (stereo not given) | inconclusive: 79.4 µM [inhibitor, partial curve, poor fit]
54 | CCCCN1CCC(N(C(=O)NCCc2ccccc2)C2CCOCC2)CC1 | inconclusive: 89.1 µM [inhibitor, single point]
55 | C[C@@H]1CN(Cc2nc3c(n2Cc2ccccc2)C(=O)N(CC2CC2)CCN3)C[C@H](C)O1 | inconclusive: 112 µM [inhibitor, partial curve, poor fit]
56 | O=C(C1CCC1)N1CCOc2ccc(CN3CCCCCC3)cc2C1 | inconclusive: 89.1 µM [inhibitor, single point]
57 | O=C(c1cccc(-c2ccccn2)c1)N1CCN(C(=O)c2ccccc2F)CC1 | inconclusive: 89.1 µM [inhibitor, single point]
58 | O=C(NCC12CCCC=C1N(Cc1ccccc1)C(=O)CC2)C1CCC1 (stereo not given) | inactive
59 | O=C(C1CCCN([S+](=O)([O-])c2cccc(C(F)(F)F)c2)C1)N1CCC(c2nc3ncccc3[nH]2)C1 (stereo not given) | inconclusive: 56.2 µM [inhibitor, partial curve, poor fit]
60 | Cc1ccc(CNC(=O)Nc2cccc(-c3ccc(N4CCOCC4)nn3)c2)cc1 | inconclusive: 56.2 µM [inhibitor, partial curve, poor fit]
61 | CCN1C(=O)CCC2(C(=O)Nc3cccc(OC)c3)CCCC=C12 (stereo not given) | inactive
62 | COc1ccc(-c2cc(N3CCCC(NC(=O)c4cccc(F)c4)C3)n[nH]2)cc1 (stereo not given) | inconclusive: 8.91 µM [inhibitor, full curve]
63 | CCOCCOC1CCN(C(=O)NCc2ccc(C)cc2)CC1 | inactive
64 | CC(C)N(Cc1cccc(N2CCN(C(=O)c3c(Cl)cccc3Cl)CC2)c1F)[S+](C)(=O)[O-] | active: 79.4 µM
65 | Cc1ccccc1CC(=O)N1CCCN(c2cc(-c3ccc(Cl)cc3)[nH]n2)CC1 | inconclusive: 44.7 µM [inhibitor, partial curve, poor fit]
